Source: publication PMC7819943, “Rice protein-binding microarrays: a tool to detect cis-acting elements near promoter regions in rice”
The list shows a part of the results.

Biological target: T1, OsWOX13 (Oryza sativa, UniProt Q5QMM3 1-267)
T1 sequence: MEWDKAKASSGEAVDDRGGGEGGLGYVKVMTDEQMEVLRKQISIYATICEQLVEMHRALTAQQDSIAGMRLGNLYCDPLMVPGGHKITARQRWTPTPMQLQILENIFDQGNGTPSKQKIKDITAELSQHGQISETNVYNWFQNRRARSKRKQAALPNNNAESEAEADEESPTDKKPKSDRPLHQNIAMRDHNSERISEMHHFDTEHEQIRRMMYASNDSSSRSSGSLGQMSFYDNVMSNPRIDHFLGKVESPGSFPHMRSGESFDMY
Assay: protein-binding microarray (RPBM); PBS, 2% BSA, 51.3 ng/ul salmon testes DNA, 50 uM zinc acetate, 200 nM TF, 25 C, 1 h; high values mean tight binding
Settings: protein: recombinant; tags: N-terminal polyhistidine and DsRed monomer fusion (pET32a); label: CyDye5-dUTP incorporated in the synthesized complementary strand; 3' TTTTT single-stranded linker to array surface; dsDNA, one strand shown
Procedure, shortened: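 Transcription factors were each fused at the N-terminus to a polyhistidine tag plus DsRed and expressed in E. coli BL21-CodonPlus before Ni–NTA purification. Binding to a double-stranded custom Agilent array was carried out with 200 nM protein at 25 °C for 1 h in PBS, 2% BSA, salmon testes DNA and 50 µM zinc acetate. The binding signal is per-feature fluorescence intensity, in arbitrary units, on an Axon 4000B scanner.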

Row | Sequence | binding signal
1 | CCTAAAATTAACCCCAAAATTGTGTTTTAAAATTTTACTTCGGAGTCACCTAGTGCAG | 4660 fluorescence intensity (a.u.)
2 | ATTTTAACTTTAATTTACTCACGTGTACTCTCGAATAATTCGGAGTCACCTAGTGCAG | 9010 fluorescence intensity (a.u.)
3 | ACAAATTAGCTATTATATTGGCTATAGATGATTTGGAGTACGGAGTCACCTAGTGCAG | 42300 fluorescence intensity (a.u.)
4 | CCTCAATCATTCCCATCCTCGTTCATCCGTCAGTGGCCCCCGGAGTCACCTAGTGCAG | 18500 fluorescence intensity (a.u.)
5 | CTTCAAATTTGATCCTGCCATACAAGTGACCTCTTTGGTTCGGAGTCACCTAGTGCAG | 3840 fluorescence intensity (a.u.)
6 | TACATAATAATTATTTCTTGTGCTCTGAGTAACGTTTTAGCGGAGTCACCTAGTGCAG | 9470 fluorescence intensity (a.u.)
7 | GACATTAATTCTTTTACTTAATTAAGATCATTGTTTAATACGGAGTCACCTAGTGCAG | 10400 fluorescence intensity (a.u.)
8 | CACAATCCAATCACCTCCTCTCTTGTTGCCTCCCAAAACCCGGAGTCACCTAGTGCAG | 6720 fluorescence intensity (a.u.)
9 | CATGATGAGTGTCTAATAACTAAAACAACCCCTCCAAAATCGGAGTCACCTAGTGCAG | 10200 fluorescence intensity (a.u.)
10 | AATGACTGATTAATTAGGCTTAATAAATTCATCTCGCAGTCGGAGTCACCTAGTGCAG | 59600 fluorescence intensity (a.u.)
11 | TCCTTAATTTTGTTTGAACTTTGATTTCTAGTTTATGAAACGGAGTCACCTAGTGCAG | 15600 fluorescence intensity (a.u.)
12 | TATTCAATTATAGATTTAATAAAACTATGGTGATGTTGTACGGAGTCACCTAGTGCAG | 17700 fluorescence intensity (a.u.)
13 | ATTTCTAATTACATATAATATATATATACTAATTGGAGTACGGAGTCACCTAGTGCAG | 23300 fluorescence intensity (a.u.)
14 | CCTAGATTTGACAGTTGTCAAGAAAGTATCTAAACATCCTCGGAGTCACCTAGTGCAG | 30400 fluorescence intensity (a.u.)
15 | GCTGATTGAGGCGGCGGCGGCGATCCGTGCTGCGCGCTGTCGGAGTCACCTAGTGCAG | 43200 fluorescence intensity (a.u.)
16 | TGTGATGTATTTGATTTATGATGTATTTATTTGTGTGTATCGGAGTCACCTAGTGCAG | 20700 fluorescence intensity (a.u.)
17 | GTTCAAGATACAAATTAGATTGGTTAAGGGAGCTAAAGTGCGGAGTCACCTAGTGCAG | 14200 fluorescence intensity (a.u.)
18 | ATAATTTATTTTAGAAATTGTTTAAGATGTTGTATCACAACGGAGTCACCTAGTGCAG | 9680 fluorescence intensity (a.u.)
19 | ATTCAATTCCAATCTATGAACTTTTGTTGTATTAGAAAACCGGAGTCACCTAGTGCAG | 4620 fluorescence intensity (a.u.)
20 | TGAGATAAAATTGACAAATGTTAAGGAGATATACACTTGGCGGAGTCACCTAGTGCAG | 27900 fluorescence intensity (a.u.)
21 | TCCCAGCGCTGATTGTTACCGCGCCGCACAAAATAGGAGACGGAGTCACCTAGTGCAG | 7900 fluorescence intensity (a.u.)

Row | Sequence | binding signal
22 | CATAGATAGATAAAGACAATACTTTTGGAGTAAGTGCCGGCGGAGTCACCTAGTGCAG | 8240 fluorescence intensity (a.u.)
23 | AGTTCCAATCAAAGCAATTAATTAACCATTTAATCGCCCCCGGAGTCACCTAGTGCAG | 47900 fluorescence intensity (a.u.)
24 | AAAATTACAGTCTTATTTAACTAAAATTACATATGTAAATCGGAGTCACCTAGTGCAG | 5170 fluorescence intensity (a.u.)
25 | AATCTGGACAAATGATTGTTCACGTTCATCCTTAGATGTTCGGAGTCACCTAGTGCAG | 5690 fluorescence intensity (a.u.)
26 | TGCATCTATCAACCCTGTAAATTTCTGGGTTCTCTACAGACGGAGTCACCTAGTGCAG | 6400 fluorescence intensity (a.u.)
27 | CTAATATTTAATTAATCATCATTGCGTTAATCGCTCGAGACGGAGTCACCTAGTGCAG | 19200 fluorescence intensity (a.u.)
28 | ATTCAATTAGGAGCAAGAAATGAGGGAGAGGTTAAATAGACGGAGTCACCTAGTGCAG | 7070 fluorescence intensity (a.u.)
29 | TAGAGAGCTAGTACTGTAATTGGTAAGGTGACACCATGGCCGGAGTCACCTAGTGCAG | 3200 fluorescence intensity (a.u.)
30 | CTTTATTCTTCCACGCATGATTGGCTACATGGGCATTGAGCGGAGTCACCTAGTGCAG | 13600 fluorescence intensity (a.u.)
31 | TCGTTCCAACTTCAATCAAACTTTCTATTTTAGCATGAACCGGAGTCACCTAGTGCAG | 4430 fluorescence intensity (a.u.)
32 | GCCCATAATTTATTTCATTTGGGCTTGAGAATAGCCTTTCCGGAGTCACCTAGTGCAG | 9380 fluorescence intensity (a.u.)
33 | GATAATTTAACACTCCTTTAAATGGGTTTTGATTATTTGACGGAGTCACCTAGTGCAG | 13500 fluorescence intensity (a.u.)
34 | GTACTAGTAATTTGCTAGGTTAATTTAGGCCCTGTTTCGTCGGAGTCACCTAGTGCAG | 15400 fluorescence intensity (a.u.)
35 | AAGGATGAACTTGATTGCGAAGTCCAAGAGCTTAGCAGAACGGAGTCACCTAGTGCAG | 12000 fluorescence intensity (a.u.)
36 | GACAAAATTGAGATTACTCTCATGTTGACGAGAGAAACACCGGAGTCACCTAGTGCAG | 8540 fluorescence intensity (a.u.)
37 | TGTTTGATTATGTTCAATCATTGCAAATCATGTCATCTGTCGGAGTCACCTAGTGCAG | 45900 fluorescence intensity (a.u.)
38 | ACCTACATATCACTAAGTAATCAACTGTATTAGTGACTTACGGAGTCACCTAGTGCAG | 4420 fluorescence intensity (a.u.)
39 | GTTTATGTTAGTGCTAGTGATTAGTACTTAAACATTCAGACGGAGTCACCTAGTGCAG | 4010 fluorescence intensity (a.u.)
40 | TGGTGAAATTTGTATTTTAATTAATTACATAATGTAAATCCGGAGTCACCTAGTGCAG | 22400 fluorescence intensity (a.u.)
41 | TGTTGTTGATTAATAACATAAATCTAGCTTGCCATATGTGCGGAGTCACCTAGTGCAG | 33100 fluorescence intensity (a.u.)
42 | CTTAATTAAGTTCATGCATCTTATCTAGATGCACGGTGCACGGAGTCACCTAGTGCAG | 28100 fluorescence intensity (a.u.)
